{"source": "PubChem BioAssay AID504832", "about": "(National Center for Advancing Translational Sciences (NCATS), 2011)", "note": "Among all 310,000 compounds or so, about 18,000 (5.8%) were called active. Inconclusive means that the source gave no clear call. Such entries were picked first, then a sample of the others. The call rests on the fitted dose curve; in most records, active means well fitted inhibition curve with a large enough effect; inconclusive means small, poorly fitted or top-dose-only effect, or another doubt; inactive means no such curve, though single readings can be large or run the other way. No potency is given beside an inconclusive call; the fits are too rough. Potency means the concentration at half of the fitted maximal effect; tags describe the fitted curve by direction and shape.", "data": [{"assay": "Primary qHTS for delayed death inhibitors of the malarial parasite plastid, 48 hour incubation", "details": "P. falciparum luciferase growth in erythrocytes; series mostly up to 28.7 µM", "in_short": "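Here the parasites carry a stable luciferase gene and grow inside erythrocytes in Albumax-based RPMI medium with compound for one erythrocytic cycle. Activity is scored as loss of luminescent signal.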", "values": [{"smiles": "COc1ccc(-c2cc(=O)oc3cc(OCC(=O)NCc4ccccn4)ccc23)cc1", "Potency": "inactive"}, {"smiles": "CCC(=O)Nc1cc(C(=O)N2CCC3(CC2)OCCO3)ccc1S(=O)(=O)c1ccc(C)cc1", "Potency": "inactive"}, {"smiles": "CCN1CCN(c2c(/C=C3\\SC(=S)N(Cc4ccco4)C3=O)c(C)c(C#N)c(=O)n2C)CC1", "Potency": "active: 2.33 µM"}, {"smiles": "CCN(Cc1ccncc1)S(=O)(=O)c1ccc(C(C)=O)cc1", "Potency": "inconclusive [inhibitor, partial curve, poor fit]"}, {"smiles": "COc1ccc(OC)c2c(C)cc(N3CCN(C(=O)c4ccc(F)cc4)CC3)nc12", "Potency": "inconclusive [inhibitor, full curve, poor fit]"}, {"smiles": "O=c1[nH]c(C2CCN(S(=O)(=O)c3ccccc3)CC2)nc2c1nnn2Cc1c(F)cccc1Cl", "Potency": "inconclusive [inhibitor, single point]"}, {"smiles": "COc1ccccc1C(=O)NC(CCSC)C(=O)NNC(=O)c1ccccc1O", "note": "(stereo not drawn)", "Potency": "inconclusive [inhibitor, single point]"}, {"smiles": "COc1ccccc1C(=O)NC(=O)COC(=O)Cc1n[nH]c(=O)c2ccccc12", "Potency": "inactive"}, {"smiles": "COc1ccc(C2c3cc(OC)c(OC)cc3CCN2C(=O)c2cccc([N+](=O)[O-])c2)cc1OC", "note": "(stereo not drawn)", "Potency": "inconclusive [inhibitor, partial curve, poor fit]"}, {"smiles": "COc1ccc2c(c1)O[C@@H](c1cccc(C(F)(F)F)c1)[C@H](O)C2=O", "Potency": "inconclusive [inhibitor, single point]"}, {"smiles": "CCOc1ccccc1N1CC(C(=O)N(CC)CC(=O)Nc2ccc3c(c2)OCCO3)CC1=O", "note": "(stereo not drawn)", "Potency": "inconclusive [inhibitor, single point]"}, {"smiles": "O=C(CSc1n[nH]c(=O)n1C1CC1)NCc1ccccc1Cl", "Potency": "inactive"}, {"smiles": "CCc1oc(C(=O)OC)cc1CSC(=N)N", "Potency": "inconclusive [inhibitor, single point]"}, {"smiles": "O=S(=O)(Nc1cc(Cl)ccc1-n1cncn1)c1ccc(F)cc1", "Potency": "inconclusive [inhibitor, single point]"}, {"smiles": "CCc1nn2c(NCCOC)cc(C)nc2c1-c1ccc(F)cc1", "Potency": "inconclusive [inhibitor, partial curve]"}, {"smiles": "O=C(COc1ccccc1)Nc1cc(C(F)(F)F)ccc1N1CCCC1", "Potency": "inconclusive [inhibitor, partial curve, poor fit]"}, {"smiles": "CC(O)CNCCNCc1c(OCc2ccccc2)ccc2ccccc12", "note": "(stereo not drawn)", "Potency": "active: 1.85 µM"}, {"smiles": "CCOC(=O)C(/C(C)=N/NC(=O)c1ccccc1[N+](=O)[O-])C(C)C", "note": "(stereo not drawn)", "Potency": "inconclusive [inhibitor, single point]"}, {"smiles": "CCCCSc1nc2sc3c(c2c(=O)[nH]1)CC(C)(CC)OC3", "note": "(stereo not drawn)", "Potency": "inconclusive [inhibitor, single point]"}, {"smiles": "O=C(Nc1ccccc1)c1ccc(NCCN2C(=O)CCC2=O)c([N+](=O)[O-])c1", "Potency": "inactive"}, {"smiles": "COc1ccccc1C(=O)NCCOc1ccc(C(C)(C)C)cc1", "Potency": "inconclusive [inhibitor, single point]"}, {"smiles": "CCC(Sc1nc2c(c(=O)n1CC)SC(C)C2)C(=O)OC", "note": "(stereo not drawn)", "Potency": "inconclusive [inhibitor, full curve, poor fit]"}, {"smiles": "Cc1cccc(C2c3[nH]c4ccccc4c3CCN2C(=O)c2nn(C)c(=O)c3ccccc23)n1", "note": "(stereo not drawn)", "Potency": "inconclusive [inhibitor, partial curve]"}, {"smiles": "Oc1c(N=NC(=S)Nc2ccccc2F)c2ccccc2n1Cc1ccc(Cl)cc1", "Potency": "active: 2.33 µM"}, {"smiles": "Cc1ccc(C(=O)CCC(=O)Nc2ccccc2C)c(C)c1", "Potency": "inactive"}, {"smiles": "CSc1ccc(C2c3[nH]c4ccccc4c3CCN2C(=O)c2ccnn2C)cc1", "note": "(stereo not drawn)", "Potency": "inconclusive [inhibitor, full curve]"}, {"smiles": "Cc1ccc2c(c1)CCCN2CC(=O)Nc1cc(S(=O)(=O)N2CCCC2)ccc1Cl", "Potency": "active: 10.4 µM"}, {"smiles": "COc1ccc(CNC(=O)COC(=O)CC2CCCC2)cc1", "Potency": "inconclusive [inhibitor, partial curve, poor fit]"}, {"smiles": "Cc1ccsc1/C=N/NC(=O)c1ccc(-n2cccc2)cc1", "Potency": "inconclusive [inhibitor, single point]"}, {"smiles": "Cc1nnc(-c2ccc(Cl)cc2)nc1NCCN(C)C", "Potency": "inactive"}, {"smiles": "OC(CSc1ccccc1Cl)CN1CCN(c2ccccc2F)CC1", "note": "(stereo not drawn)", "Potency": "inconclusive [inhibitor, single point]"}, {"smiles": "C/C(=N\\NC(=O)CSc1nc2ccccc2s1)c1cccnc1", "Potency": "inconclusive [inhibitor, partial curve, poor fit]"}, {"smiles": "COc1ccc(-c2cc(C)no2)cc1S(=O)(=O)N1CCN(c2cccc(C)c2)C(C)C1", "note": "(stereo not drawn)", "Potency": "inconclusive [inhibitor, single point]"}, {"smiles": "COc1ccccc1N1C(=O)C2C3C=CC(CC3)C2C1=O", "note": "(stereo not drawn)", "Potency": "active: 10.4 µM"}, {"smiles": "COc1ccc(CC2(CO)CCN(Cc3cccn3-c3ccccn3)CC2)cc1", "Potency": "inconclusive [inhibitor, partial curve, poor fit]"}, {"smiles": "CCOc1ccc(CCNC(=O)c2ccc(C)c(N3CCCC3=O)c2)cc1OCC", "Potency": "inconclusive [inhibitor, partial curve]"}, {"smiles": "CC1=C(C(=O)OCc2ccccc2)C(c2cccc3ccccc23)NC(=O)N1CCCC(=O)O", "note": "(stereo not drawn)", "Potency": "inconclusive [inhibitor, single point]"}, {"smiles": "CC1CCN(C(=O)Cn2c(=O)n(Cc3ccc4c(c3)OCO4)c(=O)c3ccccc32)CC1", "Potency": "inactive"}, {"smiles": "c1ccc2oc(SCc3cn4ccccc4n3)nc2c1", "Potency": "inactive"}, {"smiles": "COc1ccc(F)cc1S(=O)(=O)Nc1cc2c3c(c1)CC(=O)N3CCC2", "Potency": "inconclusive [inhibitor, single point]"}, {"smiles": "CCOc1cc(/C=N/NC(=O)c2nn(C)cc2Br)ccc1OCc1ccccc1Cl", "Potency": "inconclusive [inhibitor, partial curve]"}, {"smiles": "CCN(CC)C(=O)C1CC(=O)N(c2ccc(OC)cc2)C1c1ccc(OC)cc1", "note": "(stereo not drawn)", "Potency": "inconclusive [inhibitor, full curve]"}, {"smiles": "CC(C)Cn1c(=S)[nH]c2ccccc2c1=O", "Potency": "inconclusive [inhibitor, single point]"}]}]}
